Variants at the floor of the assay are shown more often than the library holds them.
B1: glmS ribozyme (parent)
chain: AUAAAAGCGCCAGAACUACAGAAAUGUAGUUGACGAGGAGGAGGUUUAUCGAAUUUUCGGCGGAUGCCUCCAAA

How the values were obtained:
Settings in all cases: with glucosamine-6-phosphate
glucosamine-6-phosphate [1] = variants of: B1; experiment: kcat; higher = faster cleavage; RNA array
How it was run: (§1)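 Sequenced MiSeq chips were the platform: E. coli RNA polymerase transcribed barcoded ribozyme variants on them in situ, and a hybridised Cy3 probe tracked these at 37 °C. After glucosamine-6-phosphate (40 μM to 10 mM) in HEPES/KCl/Mg(OAc)2 buffer was flowed in, tiles were imaged over ~14 h. Signals normalised to baseline and to non-cleaving reference variants were reduced to per-tile medians and fit to one- or two-exponential decays to obtain kobs. kcat and KM were derived through weighted Michaelis–Menten fits across concentrations.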

glucosamine-6-phosphate [2] = variants of: B1; experiment: self-cleavage kobs at 40 uM GlcN6P; higher = faster cleavage; RNA array
How it was run: as §1

glucosamine-6-phosphate [3] = variants of: B1; experiment: self-cleavage kobs at 640 uM GlcN6P; higher = faster cleavage; RNA array
How it was run: as §1

glucosamine-6-phosphate [4] = variants of: B1; experiment: self-cleavage kobs at 160 uM GlcN6P; higher = faster cleavage; RNA array
How it was run: as §1

glucosamine-6-phosphate [5] = variants of: B1; experiment: self-cleavage kobs at 10000 uM GlcN6P; higher = faster cleavage; RNA array
How it was run: as §1

glucosamine-6-phosphate [6] = variants of: B1; experiment: self-cleavage kobs at 2500 uM GlcN6P; higher = faster cleavage; RNA array
How it was run: as §1

| Variant | kcat (glucosamine-6-phosphate [1]) [s⁻¹] | self-cleavage kobs at 40 uM GlcN6P (glucosamine-6-phosphate [2]) [s⁻¹] | self-cleavage kobs at 640 uM GlcN6P (glucosamine-6-phosphate [3]) [s⁻¹] | self-cleavage kobs at 160 uM GlcN6P (glucosamine-6-phosphate [4]) [s⁻¹] | self-cleavage kobs at 10000 uM GlcN6P (glucosamine-6-phosphate [5]) [s⁻¹] | self-cleavage kobs at 2500 uM GlcN6P (glucosamine-6-phosphate [6]) [s⁻¹] |
| --- | --- | --- | --- | --- | --- | --- |
| G32U A48G | < 1e-05 | < 1e-05 | < 1e-05 | < 1e-05 |  |  |
| G32U C61A | < 1e-05 |  | < 1e-05 |  |  |  |
| G32U C61A C70U | < 1e-05 |  |  |  |  |  |
| A33C A53C | < 1e-05 |  |  | < 1e-05 |  |  |
| A33C U56G C68U | < 1e-05 |  |  |  | < 1e-05 |  |
| A33G G35C | < 1e-05 | < 1e-05 |  |  | < 1e-05 |  |
| A33G G38U | < 1e-05 |  |  |  | < 1e-05 |  |
| A33U C61A | < 1e-05 |  |  |  | < 1e-05 |  |
| A33U C68A | < 1e-05 | < 1e-05 |  | < 1e-05 | < 1e-05 |  |
| A33U C68G | < 1e-05 | < 1e-05 |  |  |  |  |
| A33U G35C | < 1e-05 |  | < 1e-05 | < 1e-05 | < 1e-05 |  |
| A33U G62A | < 1e-05 |  |  | < 1e-05 |  |  |
| C34A A53G | < 1e-05 |  | < 1e-05 |  |  |  |
| C34A G37C | < 1e-05 |  |  |  | < 1e-05 | < 1e-05 |
| C34A U55G | < 1e-05 |  |  |  |  |  |
| C34G G66U | < 1e-05 |  |  |  | < 1e-05 |  |
| C34U U49C | < 1e-05 |  |  |  |  |  |
| G35U A52G | < 1e-05 | < 1e-05 |  |  |  |  |
| G35U G51U | < 1e-05 | < 1e-05 | < 1e-05 | < 1e-05 |  | < 1e-05 |
| A36C G38U | < 1e-05 | < 1e-05 |  | < 1e-05 | < 1e-05 |  |
| A36C U47G | < 1e-05 |  |  |  |  |  |
| A36G A39U | < 1e-05 |  |  | < 1e-05 |  |  |
| A36G C67G | < 1e-05 |  |  |  |  |  |
| A36G U47G C71G | < 1e-05 |  | < 1e-05 |  |  |  |
| A36U A53U | < 1e-05 |  | < 1e-05 |  |  |  |
| A36U C58A | < 1e-05 |  | < 1e-05 |  |  |  |

| Variant | kcat (glucosamine-6-phosphate [1]) [s⁻¹] | self-cleavage kobs at 40 uM GlcN6P (glucosamine-6-phosphate [2]) [s⁻¹] | self-cleavage kobs at 640 uM GlcN6P (glucosamine-6-phosphate [3]) [s⁻¹] | self-cleavage kobs at 160 uM GlcN6P (glucosamine-6-phosphate [4]) [s⁻¹] | self-cleavage kobs at 10000 uM GlcN6P (glucosamine-6-phosphate [5]) [s⁻¹] | self-cleavage kobs at 2500 uM GlcN6P (glucosamine-6-phosphate [6]) [s⁻¹] |
| --- | --- | --- | --- | --- | --- | --- |
| A36U G51U | < 1e-05 | < 1e-05 |  |  | < 1e-05 | < 1e-05 |
| A36U U47G | < 1e-05 |  |  |  |  |  |
| G37A G59U | < 1e-05 |  | < 1e-05 | < 1e-05 | < 1e-05 |  |
| G37A G60A | < 1e-05 |  |  | < 1e-05 |  |  |
| G37C G40A | < 1e-05 | < 1e-05 |  | < 1e-05 |  |  |
| G37C G40U | < 1e-05 | < 1e-05 | < 1e-05 | < 1e-05 |  |  |
| G37U C70U | < 1e-05 |  |  |  |  |  |
| G37U G66U | < 1e-05 |  |  |  |  |  |
| G37U U49C | < 1e-05 | < 1e-05 |  |  | < 1e-05 |  |
| G37U U55G | < 1e-05 | < 1e-05 |  |  |  |  |
| G37U U56C | < 1e-05 | < 1e-05 | < 1e-05 | < 1e-05 |  |  |
| G38A C50U | < 1e-05 | < 1e-05 |  |  | < 1e-05 |  |
| G38A U47G | < 1e-05 |  | < 1e-05 |  |  |  |
| G38A U65C | < 1e-05 |  |  |  |  |  |
| G38C C70G | < 1e-05 |  |  |  |  | < 1e-05 |
| G38C C70U | < 1e-05 |  |  |  |  |  |
| G38C C71A | < 1e-05 |  |  |  | < 1e-05 |  |
| G38C G51A | < 1e-05 |  |  |  | < 1e-05 |  |
| G38C G60C | < 1e-05 |  |  | < 1e-05 |  | < 1e-05 |
| G38C U65C C71G | < 1e-05 |  |  | < 1e-05 |  |  |
| G38U C58A | < 1e-05 |  |  |  |  |  |
| G38U C71A | < 1e-05 |  |  |  |  | < 1e-05 |
| G38U U55A | < 1e-05 |  |  |  | < 1e-05 |  |
| A39G G63A | < 1e-05 | < 1e-05 | < 1e-05 |  | < 1e-05 |  |
| G40A G44C | < 1e-05 | < 1e-05 | < 1e-05 |  |  |  |
| G40U C58G | < 1e-05 | < 1e-05 | < 1e-05 | < 1e-05 |  |  |

From the supplement of paper PMC7125110
